# Reference: the supplement of paper PMC3334620
# The full ranking holds about 33,000 sequences; the median of “E-score (-0.5 to 0.5)” is about -0.012, and the highest 2% start at about 0.27. The list shows a part of the results.
# Biological target: T1, Vhr1 (UniProt P40522)
# T1 sequence: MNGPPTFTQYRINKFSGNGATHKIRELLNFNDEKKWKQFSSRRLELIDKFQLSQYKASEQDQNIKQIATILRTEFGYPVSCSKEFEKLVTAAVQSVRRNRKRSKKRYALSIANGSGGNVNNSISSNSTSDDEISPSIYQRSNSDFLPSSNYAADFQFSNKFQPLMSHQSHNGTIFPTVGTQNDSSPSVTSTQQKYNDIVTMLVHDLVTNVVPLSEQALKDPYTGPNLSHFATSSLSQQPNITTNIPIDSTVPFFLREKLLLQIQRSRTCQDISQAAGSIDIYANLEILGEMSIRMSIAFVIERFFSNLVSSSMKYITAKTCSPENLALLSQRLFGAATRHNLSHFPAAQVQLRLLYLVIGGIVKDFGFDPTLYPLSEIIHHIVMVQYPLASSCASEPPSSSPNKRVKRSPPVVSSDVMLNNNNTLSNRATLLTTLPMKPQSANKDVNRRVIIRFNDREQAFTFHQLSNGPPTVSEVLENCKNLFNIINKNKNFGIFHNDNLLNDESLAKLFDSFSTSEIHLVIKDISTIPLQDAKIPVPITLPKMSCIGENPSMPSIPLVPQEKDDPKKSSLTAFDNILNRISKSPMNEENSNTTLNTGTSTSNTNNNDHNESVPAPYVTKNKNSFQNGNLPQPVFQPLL
# Assay: PBM E-score (8-mer binding enrichment) (E-score (-0.5 to 0.5)); higher = stronger / more preferred TF binding; most listed sequences are background and not binding sites
# Conditions: protein concentration: 200 nM; construct: GST-full length
# In short: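 Masliner-normalised scans of fluorescent anti-GST signal were the basis for scoring. That signal came from GST-tagged yeast transcription factors applied at about 100-200 nM to double-stranded universal all-10-mer Agilent arrays on fresh or once-stripped slides. Each ungapped eight-base word, pooled with its reverse complement, received an E-score from the Universal PBM Analysis Suite.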
row,Sequence,PBM E-score
1,ATACGAAC,0.0953
2,GAGGGGGA,-0.206
3,AGTTCCTA,-0.101
4,ATCATGTG,0.204
5,AACTTAGT,-0.0782
6,ATAATGCG,-0.0118
7,GGCTCCCC,-0.00864
8,CGGGATAC,0.132
9,ACTGATCG,0.0591
10,GCCTGGGA,-0.0341
11,AAACTACA,0.0884
12,CATCGAAC,-0.00391
13,ACGGCAGA,-0.0778
14,GCACGGTA,-0.119
15,CTGACTCC,0.47
16,CTCTTAAC,-0.119
17,ACGAGAAC,0.0182
18,ACATTTAA,-0.0418
19,ATGTACGC,-0.12
20,GCCCGCAC,0.0853
21,ACGATATG,0.181
22,TACTATAA,0.191
23,CAGCAACC,0.0974
24,AACGATGA,0.076
25,ACCCATAT,0.296

row,Sequence,PBM E-score
1,GTTTACGA,-0.0709
2,ACTCGGAG,0.29
3,CAGGCGCG,0.0246
4,CCGCTCCG,0.0277
5,CGAGAGCG,-0.118
6,TATCAAGA,0.0971
7,AACGCTTG,-0.00898
8,ACCTGATC,0.0739
9,TGTATAAA,-0.0816
10,AAACCCTC,-0.191
11,ACAGAACC,-0.141
12,CCTCCGAA,-0.266
13,GAACAGGC,-0.168
14,AATAGCGA,0.0648
15,AAACCACT,-0.125
16,GCCCGGAC,-0.0583
17,CTGATTGA,0.177
18,ACTCGCTA,0.133
19,AATACCTG,-0.138
20,AATAGGTC,-0.0642
21,ACCGATTA,0.0335
22,ATTCCCAC,0.037
23,AATGAGGC,-0.279
24,GCAATCAC,0.159
25,TAGGCAAA,-0.254

row,Sequence,PBM E-score
1,AAAGGCGG,-0.0402
2,GCACTTCC,-0.261
3,GACCCAAA,0.0473
4,GGCAAGAC,-0.138
5,CGCCACCC,0.105
6,TAAGTGAA,-0.0403
7,ATCACCTG,0.245
8,GCCCTCCC,-0.00152
9,AGCGATAT,0.0779
10,CAAAATAC,-0.0801
11,CCAATTGA,0.0252
12,GTTATTCA,0.0116
13,ATGCACTA,0.101
14,ATGGACAT,0.0546
15,CCTCTTTA,-0.25
16,GTAGTGTA,0.0691
17,CCCGTAAG,-0.119
18,ACCATTTC,0.109
19,AACCCATC,0.169
20,ACTCTGCA,0.256
21,GCGAGCCA,0.19
22,CAGATCGG,0.0719
23,CGTACAGC,-0.0215
24,ATTATTGG,-0.0278
25,GCTAAAGC,-0.225

row,Sequence,PBM E-score
1,CCTAGATC,-0.0606
2,AGTGACAG,0.0399
3,GATCAGAA,-0.156
4,CATTCAGC,-0.161
5,AAGGGCAA,-0.0617
6,ATACCCCG,0.0169
7,CATGTCCA,0.16
8,CTACCCAA,0.0904
9,GTCGCGCA,0.205
10,CTACAAAG,0.111
11,GGCCTGAA,-0.155
12,GGAAACCA,-0.123
13,CAATCAAC,-0.0281
14,ACTTGTCG,-0.0696
15,AGTTTCTC,-0.163
16,AAATGTAA,-0.0606
17,ACAGCGTA,-0.126
18,GAAGGACA,-0.0903
19,ACTCTACG,-0.192
20,AACAGGCG,-0.115
21,GCGTGGCA,-0.22
22,ATAATGTA,0.0729
23,CAGTGTTA,0.132
24,ACCCGACC,-0.00763
25,GATCGACC,-0.0996

row,Sequence,PBM E-score
1,TAGGGCAA,-0.179
2,CAGTCATA,0.291
3,CCGCTTGA,-0.019
4,CAGCTATG,-0.093
5,CATGGACA,0.14
6,ATACCATA,0.237
7,ACGCCCGT,0.0276
8,CGTTGAGC,-0.246
9,TGGACGAA,-0.0312
10,AAATAACT,0.109
11,CATTAAGG,-0.0689
12,CGACACCG,-0.0812
13,AGCTATGG,0.0232
14,CTGGTGCC,-0.223
15,CAACCTAA,0.049
16,GAAAGGCA,-0.124
17,GGAGTGGA,-0.188
18,ACGGCGAA,0.0608
19,ATCTGTAC,0.0611
20,CATGAAAC,0.0573
21,TACGTCCA,-0.155
22,CCCTGGTA,-0.183
23,GTCGACGA,-0.0209
24,ATTCTGCG,0.0109
25,AATCTGGC,-0.138

row,Sequence,PBM E-score
1,GATGCTCA,-0.00925
2,AACGAGCG,0.00203
3,AAGTCGCG,0.0758
4,TAAAATAA,-0.14
5,CGGACTTC,-0.196
6,GCTCGACC,-0.0414
7,ACAGTAAT,0.158
8,GGACAGTA,0.0666
9,CACCTGAA,-0.0796
10,CTGCTTTA,-0.00538
11,TCGGTTCA,-0.102
12,CACCTATC,0.0251
13,CTACCGGA,0.0224
14,GCGCAGAC,0.024
15,CTCCCGAC,-0.0905
16,AAGGCTTC,-0.245
17,ACGCGATG,0.148
18,CCAGAAGA,-0.00312
19,CCTTTCAA,-0.101
20,CCTACAAG,-0.0583
21,GAGAGATA,-0.125
22,ATGATAGA,0.133
23,CGACTCTA,0.225
24,CCCTGACC,0.127
25,CACCACAG,0.136

row,Sequence,PBM E-score
1,ACCAAACA,0.067
2,ACAGCCCC,-0.0196
3,CAGAAATG,-0.168
4,GGGTGAGA,0.0877
5,CGGTTCAG,-0.158
6,AGTGATCG,-0.0216
7,ATGAACGG,-0.0246
8,CTAGCGTC,-0.156
9,ACTGTATA,0.056
10,AGGATCAC,-0.0227
11,CCCTCAAG,-0.255
12,CTGACGTA,-0.122
13,CTCGGTGA,-0.0359
14,CAAAGAAC,-0.206
15,ACCTCAAC,-0.101
16,CCATCAGA,-0.0758
17,GTATAGAA,-0.103
18,CATAAGTA,-0.0243
19,CGCCTGAG,0.034
20,GAAATAAA,-0.147
21,CGACCGCG,0.00566
22,ACACACCT,0.283
23,AATGGTAA,0.0643
24,CAAACTGA,0.0375
25,CCACCCCA,0.16

row,Sequence,PBM E-score
1,CGGACGCA,-0.0921
2,ATATTACG,0.106
3,CGCCTCGC,0.159
4,CGCCCGTA,-0.171
5,ACCACGAG,-0.014
6,AGCTTGTC,-0.112
7,AATGATCG,0.0614
8,ATTTATAG,-0.0555
9,ATGGGACA,-0.0387
10,GCACGGCC,0.0714
11,ACTATGAT,0.351
12,ACATTAGC,-0.144
13,CATTAGAA,-0.00514
14,ACTTACTC,0.0187
15,CTCGAAAG,-0.0953
16,ACTCCCAA,0.112
17,CGTTCTAG,-0.0895
18,CTAGACAG,0.225
19,ACTAGTAC,0.0895
20,CAATGACA,0.104
21,CTACAGCA,-0.025
22,GAGACCAA,0.114
23,AATTAAGA,-0.095
24,GATCTTCA,0.0661
25,GCCTTTTA,-0.102

row,Sequence,PBM E-score
1,ACTAAAAA,-0.127
2,ACGATGAG,0.22
3,GTGTGCAA,0.0918
4,GAGACATA,0.165
5,CGATCACA,0.162
6,CCCTAATA,-0.207
7,GCTGTTGA,-0.01
8,GCATTCAA,-0.0919
9,ACCTGGCA,-0.114
10,ATCTTATG,0.0103
11,ACTGGGTA,-0.00457
12,AAATTTCA,-0.322
13,GTAGACCA,-0.0921
14,AATATCGT,0.113
15,TGCTAACA,-0.13
16,CGTTTCAA,-0.0649
17,ATTGGATA,0.0484
18,GATGGCGA,0.019
19,AGAATACA,0.105
